Out of some 310,000 compounds screened, about 14,000 (4.5%) showed an effect of 50% or more. The effect is printed as a negative number. The list shows a part of the results.
Target: human ether-à-go-go-related gene (hERG) potassium channel (human, UniProt Q12809)
Assay: primary screen, population patch clamp on CHO cells stably expressing hERG
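Also: peak tail current of the secondary pulse compared with the same well before compound.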

human ether-à-go-go-related gene (hERG) potassium channel, sequence (Q12809 whole entry, looked up): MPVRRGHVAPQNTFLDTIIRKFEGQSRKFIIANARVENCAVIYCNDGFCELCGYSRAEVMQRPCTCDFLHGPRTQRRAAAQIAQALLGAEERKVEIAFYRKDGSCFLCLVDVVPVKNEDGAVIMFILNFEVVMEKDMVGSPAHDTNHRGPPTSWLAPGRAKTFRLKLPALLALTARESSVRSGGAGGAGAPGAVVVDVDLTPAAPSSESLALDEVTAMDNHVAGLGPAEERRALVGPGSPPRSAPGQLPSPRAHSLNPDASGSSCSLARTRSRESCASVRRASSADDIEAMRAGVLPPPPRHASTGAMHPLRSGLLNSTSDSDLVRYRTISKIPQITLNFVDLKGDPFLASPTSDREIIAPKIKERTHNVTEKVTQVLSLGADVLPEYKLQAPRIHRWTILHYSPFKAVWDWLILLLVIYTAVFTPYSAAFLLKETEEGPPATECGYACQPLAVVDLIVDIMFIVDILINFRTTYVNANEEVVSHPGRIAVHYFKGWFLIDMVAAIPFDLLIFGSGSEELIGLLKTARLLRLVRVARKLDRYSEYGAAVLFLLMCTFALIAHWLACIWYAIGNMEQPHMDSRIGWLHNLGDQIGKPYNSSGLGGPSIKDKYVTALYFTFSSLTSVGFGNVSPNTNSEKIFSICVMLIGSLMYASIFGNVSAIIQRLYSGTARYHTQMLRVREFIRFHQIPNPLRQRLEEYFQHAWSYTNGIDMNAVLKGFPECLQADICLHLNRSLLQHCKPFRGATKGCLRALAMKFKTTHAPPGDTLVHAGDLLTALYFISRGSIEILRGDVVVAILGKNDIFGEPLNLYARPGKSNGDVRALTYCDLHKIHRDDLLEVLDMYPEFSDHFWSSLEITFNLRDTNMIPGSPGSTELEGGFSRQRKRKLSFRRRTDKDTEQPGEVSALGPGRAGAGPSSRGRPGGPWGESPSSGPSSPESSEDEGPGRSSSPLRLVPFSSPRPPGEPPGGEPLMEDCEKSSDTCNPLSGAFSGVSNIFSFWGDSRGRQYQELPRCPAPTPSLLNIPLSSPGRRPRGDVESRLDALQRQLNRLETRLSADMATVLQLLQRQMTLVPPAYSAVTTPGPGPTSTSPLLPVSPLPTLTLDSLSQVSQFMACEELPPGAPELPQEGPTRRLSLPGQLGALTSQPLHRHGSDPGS

Row | SMILES | hERG current change (%, negative = inhibition) at 10uM
1 | COc1cc2c(cc1OC)n(CC(=O)NC1CCCCCC1)n1c(C)cc(=O)nc21 | -1.25%
2 | COc1cccc(/C=N/NC(=O)CSc2cccc3cccnc23)c1 | -12.6%
3 | Cc1nn(-c2ccccc2)c(N)c1C(O)(CSc1nccn1C)C(F)(F)F (stereo not drawn) | 12.8%
4 | CCCCc1ccc(NC(=O)N2CCNC(=O)C2CC(=O)Nc2ccsc2C(=O)OC)cc1 (stereo not drawn) | 8.51%
5 | O=S(=O)(Cc1ccccc1Cl)CC(O)COc1ccccc1Cl (stereo not drawn) | -12.6%
6 | CC1(CCC(=O)N2CCCC(N3CCN(c4cccc(C(F)(F)F)c4)CC3)C2)CC1 (stereo not drawn) | -61.5%
7 | COc1ccccc1OCCCOc1ccc(C)cc1Br | 7.23%
8 | COc1ccc(N2CCN(C(=O)C3CCC(Cn4c(=S)[nH]c5ccccc5c4=O)CC3)CC2)cc1 (stereo not drawn) | -9.65%
9 | O=C1CC2(CCN(C(=O)c3cccc(Cl)c3)CC2)Oc2ccccc21 | -78.5%
10 | CS(=O)(=O)n1nc(-c2cccnc2)nc1NCc1ccccc1 | 43.9%
11 | N#CCc1nn2c3c(cnc2c1C#N)C(=O)CCC3 | -3.06%
12 | CC1(C)CCCN(C(=O)c2ccc3c(c2NCCO)C(=O)c2ccccc2C3=O)C1 | -19.9%
13 | CCNC(=S)N1CCN(CCN=CC2=C(O)CC(c3cccs3)CC2=O)CC1 (stereo not drawn) | -40.6%
14 | COc1ccc(NC(=O)C2CCN(C(=O)[C@@H]3Cc4ccccc4CN3)CC2)cc1 | -38.2%
15 | CC(=O)N/C(=C\c1ccccc1)C(=O)OCC(=O)N(C)C1CCCCC1 | 6.43%
16 | Cc1ccc(NS(=O)(=O)c2csc(C(N)=O)c2)cc1C | 15%
17 | O=C(CSc1nc(-c2ccccc2)nc2ccc(F)cc12)Nc1ccc(C(=O)O)cc1 | 19%
18 | CCOC(=O)C1(Cc2ccc(OC)cc2)CCN(C(=O)c2cncs2)CC1 | -17.6%
19 | CC(C)CCN(C(=O)CNC(=O)c1ccco1)C(C(=O)NC1CCCCC1)c1cccnc1 (stereo not drawn) | -2.26%
20 | COc1cc(NC(=O)CN2C(=O)c3ccccc3Sc3ccc(C(=O)N4CCOCC4)cc32)cc(OC)c1OC | -18.3%
21 | Nc1c(C(=O)Nc2ccccc2)sc2ncc([N+](=O)[O-])cc12 | 16.8%
22 | COC(=O)C(C)(C)ONC(=O)Nc1ccccc1Br | 6.43%
23 | C=CCOc1ccc(Br)cc1CNCCCN1CCOCC1.Cl | -27.7%
24 | Cc1c(C(=O)NC(=S)Nc2cccnc2)cccc1[N+](=O)[O-] | 22.7%
25 | S=C(NCc1ccccc1)Nc1cccc2cnccc12 | -24.5%
26 | Cc1ccc(Nc2cccccc2=O)cc1 | -4.5%
27 | Cc1nc2c(C(=O)N3CCC4(CC3)OCCO4)cnn2c(C)c1Cc1cccc(Cl)c1 | -46.8%

Row | SMILES | hERG current change (%, negative = inhibition) at 10uM
28 | Cc1cccc(NC(=O)/C(=C\c2ccc([N+](=O)[O-])o2)NC(=O)c2ccc(Cl)cc2)c1 | -0.872%
29 | Cc1cc(C)nc(-n2nc(C)cc2NC(=O)c2cc3ccccc3oc2=O)n1 | -22.1%
30 | O=[N+]([O-])c1ccc(COc2ccc(-c3[nH]ncc3-c3ccccc3)c(O)c2)cc1 | -4.33%
31 | COc1ccc(Cc2cnc(N)s2)cc1 | 22.7%
32 | CO/N=C(/CNC(=O)c1ccccc1Cl)c1ccc(Cl)cc1 | -11.3%
33 | CCc1ccc(Nc2n[n+](-c3ccccc3)c(-c3ccc(SC)cc3)s2)cc1.[Cl-] | -2.72%
34 | Cc1c(C)c2ccc(OCC(=O)N3C[C@H]4C[C@@H](C3)c3cccc(=O)n3C4)c(C)c2oc1=O | 1.39%
35 | O=C(COC(=O)CCc1ccccc1)Nc1cc([N+](=O)[O-])ccc1F | -0.991%
36 | CC(=O)N1CCc2cc(S(=O)(=O)N3CCCCC3C)ccc21 (stereo not drawn) | -1.73%
37 | COCCC(=O)Nc1ccc2c(c1)CN(C(=O)CSC)CC2 | 7.01%
38 | O=C(C1CC(=O)N(c2ccccc2)C1)N1CCC(c2nc3ccccc3[nH]2)CC1 (stereo not drawn) | 9.08%
39 | CCCCOC(=O)Nc1ccc(N2CCCCC2)cc1 | -38.7%
40 | COc1cc(C(=O)NCc2ccncc2)cc(OC)c1OC | 23.6%
41 | CCOc1ccc(Oc2ccc(S(=O)(=O)N3CCOCC3)cc2NC(=O)C2=COCCO2)cc1 | -41.9%
42 | O=C(NCc1cccnc1)C1c2ccccc2C(=O)N1C1CCCC1 (stereo not drawn) | 13%
43 | COC(=O)C(C)Oc1cc(OC(C)C(=O)OC)c2c(C)c(Cl)c(=O)oc2c1 (stereo not drawn) | -27.6%
44 | COc1ccc(NC(=O)COc2ccc(N(C)S(=O)(=O)c3ccc(Cl)cc3)cc2)cc1OC | -19.9%
45 | CC1CCCC(C)N1C(=O)Cn1c(SCC(=O)Nc2ccc3c(c2)OCO3)nc2ccccc21 (stereo not drawn) | -16.2%
46 | O=C(NCCCO)c1ccc(CSc2nc3ccccc3[nH]2)cc1 | -8.65%
47 | Cc1ccc(N(CC(=O)NC2CCCC2)C(=O)CNC(=O)c2cccs2)c(C)c1 | -1.45%
48 | CCOc1ccc(-n2c(=O)c3c4c(sc3n(CC(=O)NCc3ccco3)c2=O)CCC4)cc1 | 14.3%
49 | CN(C)c1nc(N/N=C/c2ccccc2O)nc(Nc2ccc(F)cc2)n1 | 10.7%
50 | O=C(CN(C(=O)c1ccccc1Cl)C1CCCCC1)Nc1ccc(Cl)c([N+](=O)[O-])c1 | 18.5%
51 | CC(C)N(Cc1nccn1C)C(=O)CCc1nnc(CCCc2ccccc2)o1 | -21.3%
52 | CCCCc1c(C)nc2ccc(OC)cc2c1SCCC(=O)O | -3.33%
53 | COc1cccc(NC(=O)N(Cc2cc3cc(C)cc(C)c3[nH]c2=O)CC2COCCO2)c1 (stereo not drawn) | 4.85%
54 | COC(=O)c1nn(-c2ccc(OC)cc2)c(=O)cc1Sc1ccc(C)cc1 | 7.3%

Reference: publication PMC4336329 (PLoS ONE, 2015)
